Measurements: paper PMC9911399, “Two distinct binding modes provide the RNA-binding protein RbFox with extraordinary sequence specificity”
Residue numbers refer to the chain shown, from its start. The list shows a part of the results.

T1: RBFOX1 RRM (Homo sapiens, UniProt Q9NWB1 109-208)
T1 sequence: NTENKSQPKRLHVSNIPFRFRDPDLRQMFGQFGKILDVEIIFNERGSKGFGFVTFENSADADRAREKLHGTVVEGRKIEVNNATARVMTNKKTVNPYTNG

B1: UGUAAGC (DNA:RNA)
RNA: GGGAGACCGGAAUUCAGAUUGUCCUGUAAGCUUAAAUCCCGUCGUAGCCACCA
DNA 1: CAATCTGAATTCCGGTCTCCC
DNA 2: TGGTGGCTACGACGGGATT
B2: CUAUCCU (DNA:RNA)
RNA: GGGAGACCGGAAUUCAGAUUGUCCCUAUCCUUUAAAUCCCGUCGUAGCCACCA
DNA 1: CAATCTGAATTCCGGTCTCCC
DNA 2: TGGTGGCTACGACGGGATT
B3: AUGCCUG (DNA:RNA)
RNA: B2 RNA with C25A, A27G, U28C, C30U, U31G
DNA 1: CAATCTGAATTCCGGTCTCCC
DNA 2: TGGTGGCTACGACGGGATT
B4: UUCGCGU (DNA:RNA)
RNA: B2 RNA with C25U, A27C, U28G, C30G
DNA 1: CAATCTGAATTCCGGTCTCCC
DNA 2: TGGTGGCTACGACGGGATT
B5: CUGGGUA (DNA:RNA)
RNA: B2 RNA with A27G, U28G, C29G, C30U, U31A
DNA 1: CAATCTGAATTCCGGTCTCCC
DNA 2: TGGTGGCTACGACGGGATT
B6: CAUCCCG (DNA:RNA)
RNA: B2 RNA with U26A, A27U, U28C, U31G
DNA 1: CAATCTGAATTCCGGTCTCCC
DNA 2: TGGTGGCTACGACGGGATT
B7: UCUCCUA (DNA:RNA)
RNA: B1 RNA with G26C, A28C, A29C, G30U, C31A
DNA 1: CAATCTGAATTCCGGTCTCCC
DNA 2: TGGTGGCTACGACGGGATT
B8: UAUCCUU (DNA:RNA)
RNA: B2 RNA with C25U, U26A, A27U, U28C, C30U
DNA 1: CAATCTGAATTCCGGTCTCCC
DNA 2: TGGTGGCTACGACGGGATT
B9: AGGCGGC (DNA:RNA)
RNA: B1 RNA with U25A, U27G, A28C, A29G
DNA 1: CAATCTGAATTCCGGTCTCCC
DNA 2: TGGTGGCTACGACGGGATT
B10: AGGUUCG (DNA:RNA)
RNA: B2 RNA with C25A, U26G, A27G, C29U, U31G
DNA 1: CAATCTGAATTCCGGTCTCCC
DNA 2: TGGTGGCTACGACGGGATT
B11: UCUCACU (DNA:RNA)
RNA: B1 RNA with G26C, A28C, G30C, C31U
DNA 1: CAATCTGAATTCCGGTCTCCC
DNA 2: TGGTGGCTACGACGGGATT
B12: GGGAGCG (DNA:RNA)
RNA: B1 RNA with U25G, U27G, A29G, G30C, C31G
DNA 1: CAATCTGAATTCCGGTCTCCC
DNA 2: TGGTGGCTACGACGGGATT
B13: CUAGAAG (DNA:RNA)
RNA: B2 RNA with U28G, C29A, C30A, U31G
DNA 1: CAATCTGAATTCCGGTCTCCC
DNA 2: TGGTGGCTACGACGGGATT
B14: CAAAGAU (DNA:RNA)
RNA: B2 RNA with U26A, U28A, C29G, C30A
DNA 1: CAATCTGAATTCCGGTCTCCC
DNA 2: TGGTGGCTACGACGGGATT
B15: UGGUAUU (DNA:RNA)
RNA: B1 RNA with U27G, A28U, G30U, C31U
DNA 1: CAATCTGAATTCCGGTCTCCC
DNA 2: TGGTGGCTACGACGGGATT
B16: UAAUCUG (DNA:RNA)
RNA: B2 RNA with C25U, U26A, C30U, U31G
DNA 1: CAATCTGAATTCCGGTCTCCC
DNA 2: TGGTGGCTACGACGGGATT
B17: CGAGAGU (DNA:RNA)
RNA: B2 RNA with U26G, U28G, C29A, C30G
DNA 1: CAATCTGAATTCCGGTCTCCC
DNA 2: TGGTGGCTACGACGGGATT
B18: UGAGCCC (DNA:RNA)
RNA: B2 RNA with C25U, U26G, U28G, U31C
DNA 1: CAATCTGAATTCCGGTCTCCC
DNA 2: TGGTGGCTACGACGGGATT
B19: GCAGCCU (DNA:RNA)
RNA: B2 RNA with C25G, U26C, U28G
DNA 1: CAATCTGAATTCCGGTCTCCC
DNA 2: TGGTGGCTACGACGGGATT
B20: CAGACCG (DNA:RNA)
RNA: B2 RNA with U26A, A27G, U28A, U31G
DNA 1: CAATCTGAATTCCGGTCTCCC
DNA 2: TGGTGGCTACGACGGGATT
B21: UGCAUGU (DNA:RNA)
RNA: B1 RNA with U27C, A29U, C31U
DNA 1: CAATCTGAATTCCGGTCTCCC
DNA 2: TGGTGGCTACGACGGGATT
B22: GGUUCCU (DNA:RNA)
RNA: B2 RNA with C25G, U26G, A27U
DNA 1: CAATCTGAATTCCGGTCTCCC
DNA 2: TGGTGGCTACGACGGGATT
B23: CGAAACG (DNA:RNA)
RNA: B2 RNA with U26G, U28A, C29A, U31G
DNA 1: CAATCTGAATTCCGGTCTCCC
DNA 2: TGGTGGCTACGACGGGATT
B24: UACACCU (DNA:RNA)
RNA: B2 RNA with C25U, U26A, A27C, U28A
DNA 1: CAATCTGAATTCCGGTCTCCC
DNA 2: TGGTGGCTACGACGGGATT
B25: AGCUGGU (DNA:RNA)
RNA: B2 RNA with C25A, U26G, A27C, C29G, C30G
DNA 1: CAATCTGAATTCCGGTCTCCC
DNA 2: TGGTGGCTACGACGGGATT
B26: CAAUGGA (DNA:RNA)
RNA: B2 RNA with U26A, C29G, C30G, U31A
DNA 1: CAATCTGAATTCCGGTCTCCC
DNA 2: TGGTGGCTACGACGGGATT
B27: CCGCCGG (DNA:RNA)
RNA: B2 RNA with U26C, A27G, U28C, C30G, U31G
DNA 1: CAATCTGAATTCCGGTCTCCC
DNA 2: TGGTGGCTACGACGGGATT
B28: AGUGCAC (DNA:RNA)
RNA: B1 RNA with U25A, A28G, A29C, G30A
DNA 1: CAATCTGAATTCCGGTCTCCC
DNA 2: TGGTGGCTACGACGGGATT
B29: CUCCAAA (DNA:RNA)
RNA: B2 RNA with A27C, U28C, C29A, C30A, U31A
DNA 1: CAATCTGAATTCCGGTCTCCC
DNA 2: TGGTGGCTACGACGGGATT
B30: CAUGCGU (DNA:RNA)
RNA: B2 RNA with U26A, A27U, U28G, C30G
DNA 1: CAATCTGAATTCCGGTCTCCC
DNA 2: TGGTGGCTACGACGGGATT
B31: CGGCUAU (DNA:RNA)
RNA: B2 RNA with U26G, A27G, U28C, C29U, C30A
DNA 1: CAATCTGAATTCCGGTCTCCC
DNA 2: TGGTGGCTACGACGGGATT

molecular target: T1, RBFOX1 RRM; experiment: EMSA; HiTS-Eq, 1 nM pool, 10 min; buffer printed only for the single-RNA assays: 10 mM Tris pH 7.5, 150 mM NaCl, 3.4 mM EDTA, 0.001% NP-40, 30 C; details: tags: His6 N-terminal (pET28a); label: 5' 32P
Procedure, shortened: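 Purified RbFox RRM (wild type or mutant) was equilibrated for 10 min in 50 µL with 1 nM of a 5′-radiolabelled pool of RNA with 7 randomized nucleotides, its flanks annealed to DNA oligonucleotides, across increasing protein concentrations. Free RNA was separated by 8% native PAGE, excised, reverse-transcribed, PCR-barcoded and sequenced on an Illumina HiSeq 2500. Relative association constants came from read-count changes of each variant against the control reaction, normalised to the cognate motif.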

Binder | binding signal
B1 | 0.0152 KA relative to UGCAUGU
B2 | 0.00261 KA relative to UGCAUGU
B3 | 0.024 KA relative to UGCAUGU
B4 | 0.0167 KA relative to UGCAUGU
B5 | 0.0268 KA relative to UGCAUGU
B6 | 0.00362 KA relative to UGCAUGU
B7 | 0.00606 KA relative to UGCAUGU
B8 | 0.00463 KA relative to UGCAUGU
B9 | 0.0116 KA relative to UGCAUGU
B10 | 0.0219 KA relative to UGCAUGU
B11 | 0.00349 KA relative to UGCAUGU
B12 | 0.0296 KA relative to UGCAUGU
B13 | 0.0105 KA relative to UGCAUGU
B14 | 0.00276 KA relative to UGCAUGU
B15 | 0.0119 KA relative to UGCAUGU
B16 | 0.0136 KA relative to UGCAUGU

Binder | binding signal
B17 | 0.0127 KA relative to UGCAUGU
B18 | 0.00852 KA relative to UGCAUGU
B19 | 0.00879 KA relative to UGCAUGU
B20 | 0.00701 KA relative to UGCAUGU
B21 | 1 KA relative to UGCAUGU
B22 | 0.0145 KA relative to UGCAUGU
B23 | 0.00807 KA relative to UGCAUGU
B24 | 0.00235 KA relative to UGCAUGU
B25 | 0.0157 KA relative to UGCAUGU
B26 | 0.00499 KA relative to UGCAUGU
B27 | 0.0135 KA relative to UGCAUGU
B28 | 0.0117 KA relative to UGCAUGU
B29 | 0.00145 KA relative to UGCAUGU
B30 | 0.0103 KA relative to UGCAUGU
B31 | 0.0107 KA relative to UGCAUGU
